Experimental data reported in PubChem BioAssay AID588591 (National Center for Advancing Translational Sciences (NCATS), 2011).
About 4,700 (1.2%) of roughly 390,000 compounds were called active. The shares of active, inactive and inconclusive entries below differ from those in the screen. The call rests on the fitted dose curve; in most records, active means well fitted inhibition curve with a large enough effect; inconclusive means small, poorly fitted or top-dose-only effect, or another doubt; inactive means no such curve, though single readings can be large or run the other way. Where the call is inconclusive, the potency comes from a doubtful curve fit.

The compounds below were run against DNA polymerase eta (Homo sapiens) (UniProt Q9Y253) (assay: qHTS for Inhibitors of Polymerase Eta). Conditions: recombinant Pol eta, fluorescent DNA replication assay; series mostly up to 114 µM; activity change, negative = inhibition: at the top concentration.
In short: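 Pol eta at 10 nM preincubated with compounds 15 min at room temperature; reaction started with fluorescent substrate (50 nM final) and read kinetically at 0 and 10 min.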
On the % scale 0 is the no-effect control and ±100 the full control effect; potency means the concentration at half of the fitted maximal effect; tags describe the fitted curve by direction and shape.

Chain of UniProt Q9Y253 (Q9Y253 whole entry, looked up): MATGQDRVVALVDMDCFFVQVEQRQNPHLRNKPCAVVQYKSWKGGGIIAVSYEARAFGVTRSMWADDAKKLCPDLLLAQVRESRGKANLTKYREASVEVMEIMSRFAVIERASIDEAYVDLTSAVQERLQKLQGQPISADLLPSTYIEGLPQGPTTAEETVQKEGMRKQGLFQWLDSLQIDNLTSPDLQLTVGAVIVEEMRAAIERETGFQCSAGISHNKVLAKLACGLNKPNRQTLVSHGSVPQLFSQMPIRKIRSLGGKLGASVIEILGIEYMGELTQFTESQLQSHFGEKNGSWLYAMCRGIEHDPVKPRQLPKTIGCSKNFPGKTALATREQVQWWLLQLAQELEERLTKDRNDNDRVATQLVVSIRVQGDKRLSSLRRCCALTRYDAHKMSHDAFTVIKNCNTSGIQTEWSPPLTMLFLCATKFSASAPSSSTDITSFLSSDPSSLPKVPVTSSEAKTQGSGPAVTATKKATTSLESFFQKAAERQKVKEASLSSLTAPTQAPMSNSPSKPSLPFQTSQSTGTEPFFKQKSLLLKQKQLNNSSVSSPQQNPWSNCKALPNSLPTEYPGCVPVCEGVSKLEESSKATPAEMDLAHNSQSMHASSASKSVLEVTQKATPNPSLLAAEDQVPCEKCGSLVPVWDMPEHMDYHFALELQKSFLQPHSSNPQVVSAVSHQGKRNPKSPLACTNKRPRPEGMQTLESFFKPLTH

| Structure (SMILES) | Potency | activity change, negative = inhibition |
| --- | --- | --- |
| CN(Cc1ccccc1)C(=O)COC(=O)CN1C(=O)c2ccccc2C1=O | inconclusive: 100 µM [inhibitor, partial curve, poor fit] | – |
| COc1ccc(CN(CCc2ccccc2)Cc2ccccc2)cc1OC | inconclusive: 89.1 µM [inhibitor, partial curve] | – |
| CCN(CC)C(=O)c1cccc(NC(=O)c2ccc3c(=O)n4c(nc3c2)CCC4)c1 | inconclusive: 15.8 µM [inhibitor, full curve, poor fit] | – |
| O=C(O)/C(=C/c1ccco1)NC(=O)c1ccccc1 | active: 11.2 µM | – |
| CC(=O)CSc1ncnc2scc(-c3ccc(F)cc3)c12 | – | inactive: -17.5% |
| Cc1nnc(NC(=O)COc2ccc3c(C)cc(=O)oc3c2)s1 | active: 10 µM | – |
| O=[N+]([O-])c1ccc2nc(SCc3cn4cc(Cl)ccc4n3)[nH]c2c1 | active: 50.1 µM | – |
| O=C1OCCC1Sc1nc2ccccc2c(=O)n1Cc1ccc(F)cc1 (centres undefined) | inconclusive: 17.8 µM [inhibitor, full curve] | – |
| CC(=O)C(C(C)=O)C1(O)C(=O)c2ccccc2C1=O | active: 89.1 µM | – |
| Cc1onc(-c2ccccc2)c1C(=O)Nc1sc2c(c1C(N)=O)CCC2 | inconclusive: 22.4 µM [inhibitor, partial curve] | – |
| Cc1cccc(N2CCN(S(=O)(=O)c3ccc4c(c3)C(C)(C)C(=O)N4C)CC2)c1C | active: 22.4 µM | – |
| N#Cc1c([N+](=O)[O-])cc([N+](=O)[O-])cc1S(=O)(=O)Cc1ccccc1 | inconclusive: 25.1 µM [inhibitor, partial curve, poor fit] | – |
| CN(C)C(=O)CSc1nnc(-c2ccc(S(=O)(=O)N3CCCC3)cc2)n1C | active: 89.1 µM | – |
| CC(C)(C)c1ccc(C(=O)Nc2ccc(C(=O)OCc3cc(=O)n4ccsc4n3)cc2)cc1 | – | inactive: -6.13% |
| CCc1ccc(NC(=O)C(C)Sc2nc(-c3ccco3)c(C#N)c(=O)[nH]2)cc1 (centres undefined) | active: 17.8 µM | – |
| O=C(O)c1cnn2c(C(F)(F)F)cc(-c3ccco3)nc12 | inconclusive: 89.1 µM [inhibitor, partial curve] | – |
| COc1cc(/C=C(\C#N)c2nc3ccccc3[nH]2)ccc1O | inconclusive: 56.2 µM [inhibitor, partial curve, poor fit] | – |
| CN(C)CC1CCC/C(=C\c2ccc(OC(=O)c3ccc(Cl)cc3)cc2)C1=O (centres undefined) | inconclusive: 28.2 µM [inhibitor, partial curve, poor fit] | – |
| O=C(c1ccc(Cl)cc1)c1c[nH]c(C(=O)C(Cl)(Cl)Cl)c1 | active: 20 µM | – |
| CCS(=O)(=O)c1ccc(O)c(NC(=O)COc2ccccc2)c1 | inconclusive: 28.2 µM [inhibitor, partial curve, poor fit] | – |
| Cc1cc(C(=O)Nc2ccccc2)c2ccccc2n1 | – | inactive: -13.2% |
| CCCn1c(/N=C/c2ccccc2O)nc2ccccc21 | inconclusive: 3.98 µM [inhibitor, partial curve, poor fit] | – |

| Structure (SMILES) | Potency | activity change, negative = inhibition |
| --- | --- | --- |
| O=C(N=Nc1c(O)[nH]c2ccc([N+](=O)[O-])cc12)c1cc(-c2ccccc2Cl)nc2ccccc12 | inconclusive: 2.82 µM [inhibitor, full curve, poor fit] | – |
| COC(=O)COc1ccc2c(c1)O/C(=C\c1ccco1)C2=O | inconclusive: 79.4 µM [inhibitor, partial curve] | – |
| COc1ccc(Cc2nc3ccc(C(=O)NC(C)c4cn(C)nc4C)cc3o2)cc1 (centres undefined) | – | inactive: -17.1% |
| COC(=O)c1ccc(OC)c(CN2CCCN(Cc3ccc(F)cc3)S2(=O)=O)c1 | – | inactive: -5.75% |
| O=C1C=C(c2ccccc2)C[C@H](c2cccs2)[C@H]1n1nnc([N+](=O)[O-])n1 | inconclusive: 14.1 µM [inhibitor, full curve, poor fit] | – |
| Cc1ccc(-n2[nH]c(C)c(/C=N/Nc3ccc([N+](=O)[O-])cc3[N+](=O)[O-])c2=O)cc1C | active: 20 µM | – |
| CN(N)C(=S)NCc1ccccc1 | – | inactive: -8.21% |
| CCn1c(=O)c(C(=O)Nc2cccnc2)c(O)c2ccccc21 | inconclusive: 79.4 µM [inhibitor, partial curve] | – |
| CCOc1ccc(NC(=O)CSC2=Nc3ccccc3C3=NC(CC(=O)NCc4ccccc4OC)C(=O)N23)cc1 (centres undefined) | – | inactive: -20.4% |
| Cc1ccc(NC(=O)CN(C)S(=O)(=O)c2ccc3[nH]c(=O)oc3c2)c(C)c1 | active: 79.4 µM | – |
| O=C(COc1ccc(/C=N/NC(=O)c2ccc(O)cc2)cc1)Nc1ccc([N+](=O)[O-])cc1 | active: 4.47 µM | – |
| CCOc1ccc(Nc2c3ccccc3nc3ccccc23)cc1 | – | inactive: 0.73% |
| O=S(=O)(c1ccc(Br)cc1)c1nc(-c2cccs2)oc1SCc1ccc(F)cc1 | – | inactive: -16.3% |
| O=C(CSc1nnc2scc(-c3ccccc3)n12)Nc1nsc(-c2ccc(Cl)cc2)n1 | inconclusive: 11.2 µM [inhibitor, full curve, poor fit] | – |
| C[C@H](NC(=O)c1nc[nH]c1C(=O)N[C@@H](Cc1ccccc1)C(=O)OCc1ccccc1)C(=O)OCc1ccccc1 | inconclusive: 79.4 µM [inhibitor, partial curve, poor fit] | – |
| Cc1c(Cc2ccccc2)c(=O)oc2c(C)c(OCc3nn[nH]n3)ccc12 | inconclusive: 28.2 µM [inhibitor, single point] | – |
| O=C(/C=C/c1ccc(Cl)cc1)NC(=S)Nc1ccc(C(=O)O)cc1 | inconclusive: 25.1 µM [inhibitor, single point] | – |
| Cn1cnnc1SCC(=O)c1cc2ccccc2oc1=O | inconclusive: 79.4 µM [inhibitor, single point] | – |
| CCc1ccc2c(c1)C(NC(C)=O)C(=O)N2CCN1CCOCC1 (centres undefined) | inconclusive: 89.1 µM [inhibitor, single point] | – |
| COc1ccc(CCNC(=O)c2ccc(Cl)c(S(=O)(=O)N3CCCC3)c2)cc1 | inconclusive: 14.1 µM [inhibitor, partial curve, poor fit] | – |
| O=C(Nc1ccccn1)c1cc(-c2cccnc2)nc2ccc(Br)cc12 | inconclusive: 11.2 µM [inhibitor, partial curve, poor fit] | – |
| COc1ccc2[nH]cc(CCN=C(NC(=O)c3cccc(Cl)c3)Nc3nc(C)cc(C)n3)c2c1 | – | inactive: -22.8% |
